Assay results published in publication PMC4336329 (PLoS ONE, 2015).
The campaign covered roughly 310,000 compounds. About 2,200 (0.71%) showed an effect of 50% or more. Effects have a minus sign here. The list shows a part of the results.

Target: human ether-à-go-go-related gene (hERG) potassium channel (human, UniProt Q12809)
Experiment: primary screen, population patch clamp on CHO cells stably expressing hERG

Chain of human ether-à-go-go-related gene (hERG) potassium channel (Q12809 whole entry, looked up): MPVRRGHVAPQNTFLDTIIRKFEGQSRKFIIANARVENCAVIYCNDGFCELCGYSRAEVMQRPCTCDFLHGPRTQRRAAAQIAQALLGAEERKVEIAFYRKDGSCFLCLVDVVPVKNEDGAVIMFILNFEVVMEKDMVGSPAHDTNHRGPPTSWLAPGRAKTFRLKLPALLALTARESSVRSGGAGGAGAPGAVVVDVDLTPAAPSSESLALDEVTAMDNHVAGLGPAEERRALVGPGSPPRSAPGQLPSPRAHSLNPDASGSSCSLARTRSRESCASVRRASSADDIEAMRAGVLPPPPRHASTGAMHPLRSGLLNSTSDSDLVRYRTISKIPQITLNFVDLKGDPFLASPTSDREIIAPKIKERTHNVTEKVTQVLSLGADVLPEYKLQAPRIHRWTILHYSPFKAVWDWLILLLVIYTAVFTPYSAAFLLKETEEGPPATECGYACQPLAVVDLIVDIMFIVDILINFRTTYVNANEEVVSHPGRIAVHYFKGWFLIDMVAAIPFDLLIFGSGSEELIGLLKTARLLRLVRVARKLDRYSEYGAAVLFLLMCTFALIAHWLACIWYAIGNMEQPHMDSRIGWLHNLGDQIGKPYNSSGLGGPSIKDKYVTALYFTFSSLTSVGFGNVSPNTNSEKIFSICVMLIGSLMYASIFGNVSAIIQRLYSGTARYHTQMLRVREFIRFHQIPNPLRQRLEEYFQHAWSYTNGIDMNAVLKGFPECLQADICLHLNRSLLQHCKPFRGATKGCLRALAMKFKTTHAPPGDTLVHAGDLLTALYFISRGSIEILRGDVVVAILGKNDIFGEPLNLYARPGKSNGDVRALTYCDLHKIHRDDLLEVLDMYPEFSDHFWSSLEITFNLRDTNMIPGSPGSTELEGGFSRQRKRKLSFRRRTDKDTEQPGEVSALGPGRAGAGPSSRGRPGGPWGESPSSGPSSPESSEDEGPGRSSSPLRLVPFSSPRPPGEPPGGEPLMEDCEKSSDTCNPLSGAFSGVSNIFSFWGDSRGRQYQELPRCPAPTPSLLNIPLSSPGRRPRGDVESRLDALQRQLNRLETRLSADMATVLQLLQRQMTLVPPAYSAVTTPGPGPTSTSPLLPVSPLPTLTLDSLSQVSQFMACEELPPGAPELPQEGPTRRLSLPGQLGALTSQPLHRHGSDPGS

Point of comparison: `COc1ccc2cc(S(=O)(=O)NCCCN3CCOCC3)ccc2c1`, “hERG current change (%, negative = inhibition) at 1uM” value 4.04%. Against it:
- Cc1oc(-c2ccc(Cl)cc2)nc1CN1CCC(C(=O)NCCCN2CCCC2=O)CC1 — lower, -7.81%
- CCOC(=O)CC1=Nc2ccccc2NC(=O)C1 — higher, 5.61%
- COc1ccccc1CN1C[C@@H]2C[C@@H](C3=Cc4cc(Cl)ccc4OC3)N3CCC[C@@]23C1=O — lower, -12.9%
- O=C(COc1ccc(F)cc1)c1c(O)cc(O)cc1O — higher, 9%
- C[C@H]1CN(C2CCCCC2)C(=O)[C@@H]1CC(=O)NCc1ccccc1 — lower, -5.6%
- COc1cc2c(cc1NC(=O)CN1C(=O)NC3(CCc4ccccc43)C1=O)oc1ccccc12 (stereo not drawn) — higher, 6.63%
- CCn1c(SCC(=O)N2CCOCC2)nc2oc3c(Cl)cc(Cl)cc3c(=O)c2c1=O — lower, -11.6%
- Cc1cccn2c(=O)nc(SCC(=O)N3CCC(C)CC3)nc12 — lower, 2.05%
- COC(=O)c1c(C)[nH]c(C)c1-c1ccc([N+](=O)[O-])cc1 — higher, 17.3%
- CC(=O)Nc1ccc(NC(=O)C(=O)c2cn(CC(=O)N3CCCC3)c3ccccc23)cc1 — higher, 15%
- Cc1ccc(C)c(NC(=O)C2CCC(C)(C(=O)O)C2(C)C)c1 (stereo not drawn) — lower, -11.1%
- O=C(c1cc2ccccc2o1)N1CCN(S(=O)(=O)/C=C/c2ccccc2)CC1 — higher, 15.3%
- Cn1nnnc1SCC(=O)NC(C)(C)C — higher, 7.36%
- Cc1cc(C)c(C(N)=O)c(Nc2ccc3c(c2)OCCO3)n1 — higher, 7.39%
- CC(C)(C)c1cc(C(=O)N2CCN(c3ncccn3)CC2)ccn1 — lower, -5.59%
- CCOc1ccccc1NC(=O)C1CCN(S(C)(=O)=O)CC1 — lower, 2.95%
- O=C(NCCCl)C1Cc2c(ccc3ccccc23)O1 (stereo not drawn) — higher, 11.8%
- OCCCNc1c2ccccc2nc2ccccc12 — lower, -10.8%
- O=S(=O)(NCCc1csc(-c2cccnc2)n1)c1cccs1 — lower, -2.75%
- CCCCCn1c(N2CCN(Cc3ccccc3)CC2)nc2c1c(=O)[nH]c(=O)n2C — lower, -77%
- O=C(C1=C(O)C(=O)N(CCN2CCOCC2)C1c1ccc(Br)cc1)c1cc2ccccc2o1 (stereo not drawn) — higher, 15.5%
- O=C(Cn1nnc(-c2ccc(F)cc2)n1)N1CCCCC1 — higher, 6.81%
- COc1ccc(Cn2nnnc2CN(Cc2cc3cccc(C)c3[nH]c2=O)C2CCCC2)cc1 — lower, -34.5%
- COc1cccc(C2SCC(=O)N2c2ccc(Br)cc2)c1OC (stereo not drawn) — lower, 2.41%
- O=C(NCCc1ccccc1)C(=O)NCC1CCCN1S(=O)(=O)c1cccs1 (stereo not drawn) — higher, 5.75%
- NC1=CC(=O)c2cccc3cccc1c23 — higher, 10.6%
- CC1CCCN(CCC(=O)Nc2ccc(F)c(F)c2)C1 (stereo not drawn) — lower, -11.5%
- O=C(CCS(=O)(=O)c1ccc(Br)s1)NC1CCCC1 — higher, 6.5%
- Cc1ccc(-n2ncc3c2CC(C)(C)CC3NC(=O)c2ccncc2)cc1 (stereo not drawn) — lower, -48.8%
- CC(=NCC1CCCO1)c1c(O)n(-c2ccc(C)cc2)c(=O)[nH]c1=O (stereo not drawn) — lower, -2.32%
- COc1ccc(CN2CCN(Cc3ccon3)CC2CCO)c(C)c1C (stereo not drawn) — lower, 2.93%
- COc1ccc(C(=O)c2c(C)c(CCC#N)n3ccccc23)c(OC)c1 — lower, 3.79%
- CCc1nc(Nc2ccccc2)c2oc3ccccc3c2n1.Cl — lower, -5.26%
- Cc1cccc(OCCCCn2c(CO)nc3ccccc32)c1 — higher, 7.97%
- Cc1cc(C)n(Cc2ccc(C(=O)NCc3ccco3)o2)n1 — higher, 6.25%
- CC(=O)c1cccc(NC(=O)NCCc2c[nH]c3ccccc23)c1 — higher, 5.25%
- CN(CC(=O)Nc1cccc(F)c1)C(=O)c1cc(S(=O)(=O)N(C)C)ccc1N1CCCC1 — lower, -0.211%
- Cc1ccc(S(=O)(=O)N2CCN(C(=O)Cc3ccc(S(=O)(=O)N4CCOCC4)s3)CC2)cc1 — higher, 17.1%
- COc1ccccc1C(=O)Nc1c2c(nn1-c1ccc(Cl)cc1)CS(=O)(=O)C2 — higher, 9.57%
- CCOC(=O)Cc1csc(/N=C/c2c(O)n(-c3ccc(C)c(C)c3)c(=O)c3ccccc23)n1 — lower, -0.384%
- O=C(COC(=O)c1cccc2ccccc12)Nc1ncc(C(F)(F)F)cc1Cl — higher, 5.58%
- CCOC(=O)N1CCN(C(=O)C(NC(=O)c2ccco2)C(C)C)CC1 (stereo not drawn) — higher, 13.1%
- Cc1ccc(S(=O)(=O)N2CCCC(C(=O)NCc3cccnc3)C2)cc1Cl (stereo not drawn) — higher, 9.6%
- CCN1CCN(CC(=O)Nc2ccc3c(c2)OCO3)C(=O)C1=O — higher, 8.03%
- CCOC(=O)C1=NN(C(=O)c2cccc(Br)c2)C(O)(C(C)(C)C)C1 (stereo not drawn) — lower, 2.59%
- Cc1cccc(NC(=O)NCc2ccc3[nH]c(C)cc3c2)c1 — higher, 16.4%
- CCOC(=O)CSc1nnc(-c2ccccc2)o1 — higher, 10.3%
- Cc1nn(C)cc1/C=N/NC(=O)Cn1nnc(N)n1 — higher, 9.58%
- CCCC(=Nc1ccc(N)cc1)C1=C(O)C(C(=O)OC)C(C)(C)CC1=O (stereo not drawn) — higher, 4.92%
- CNC(=S)N(CCc1c(C)[nH]c2ccc(F)cc12)Cc1ccco1 — higher, 15.4%
- CCOc1ccc(NC(=O)C(=O)NCC2CCCN2CC)cc1 (stereo not drawn) — lower, 4.03%
- COCCCNC(=O)c1ccc(-c2csc(C)n2)cc1 — lower, 0.422%
- Cc1ccsc1/C=C1\SC(N2CCOCC2)=NC1=O — lower, 0.207%
- CCOC(=O)Cc1csc(NS(=O)(=O)c2ccc3c4c(cccc24)C(=O)N3CC)n1 — higher, 8.54%
- O=C(CCc1nnc(C2CCCCC2)o1)NCc1ccc(F)c(F)c1 — higher, 9.09%
- CCCCCCn1nc(C(=O)N(CCOC)c2c(N)n(CCCC)c(=O)[nH]c2=O)c2ccccc2c1=O — higher, 19.4%
